Measured values taken from the supplement of paper PMC4604168 (melanoma cell lines).
The other results are listed elsewhere or left out. Single values are uncertain, as repeats are few or missing.

Legend:
Assay in all cases: cell count relative to DMSO control; melanoma cells; higher = more viable cells
Conditions in all cases: library dose: standard library concentration; 72 h
G361 = tested on: G361
IPC-298 = tested on: IPC-298
IST-MEL1 = tested on: IST-MEL1
LB2518-MEL = tested on: LB2518-MEL
LOXIMVI = tested on: LOXIMVI
MEL-HO = tested on: MEL-HO
MZ2-MEL = tested on: MZ2-MEL
MeWo = tested on: MeWo
RPMI7951 = tested on: RPMI7951
RVH-421 = tested on: RVH-421
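Note: cells treated in 1,536-well plates, then fixed and DAPI-stained, with nuclei counted from automated high-throughput microscope images.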

Structure (SMILES) | cell count (G361) | cell count (IPC-298) | cell count (IST-MEL1) | cell count (LB2518-MEL) | cell count (LOXIMVI) | cell count (MEL-HO) | cell count (MZ2-MEL) | cell count (MeWo) | cell count (RPMI7951) | cell count (RVH-421)
CC[C@]1(O)C[C@H]2CN(CCc3c([nH]c4ccccc34)[C@@](C(=O)OC)(c3cc4c(cc3OC)N(C=O)[C@H]3[C@@](O)(C(=O)OC)[C@H](OC(C)=O)[C@]5(CC)C=CCN6CC[C@]43[C@@H]65)C2)C1 [vincristine] + Clc1ccc(Nc2nnc(Cc3ccncc3)c3ccccc23)cc1 [vatalanib] (first compound 0.0005 µM, partner dose 10 µM) | 6.02% | 19.9% | 19% | 19.5% | 31.4% | 25.7% | 25% | 22.3% | 9.69% | 23.9%
Cc1cc(Nc2cc(N3CCN(C)CC3)nc(Sc3ccc(NC(=O)C4CC4)cc3)n2)n[nH]1 [Tozasertib] + CO[C@H]1C[C@@H]2CC[C@@H](C)[C@@](O)(O2)C(=O)C(=O)N2CCCC[C@H]2C(=O)O[C@H]([C@H](C)C[C@@H]2CC[C@@H](OCCO)[C@H](OC)C2)CC(=O)[C@H](C)/C=C(\C)[C@@H](O)[C@@H](OC)C(=O)[C@H](C)C[C@H](C)/C=C/C=C/C=C/1C [everolimus] (first compound 0.03 µM, partner dose 0.1 µM) | 75.9% | 71.5% | 81.7% | 77.4% | 73.3% | 78.7% | 84.1% | 60.2% | 59.6% | 86.8%
N#CC[C@H](C1CCCC1)n1cc(-c2ncnc3[nH]ccc23)cn1 [ruxolitinib] + Cc1nc(Nc2ncc(C(=O)Nc3c(C)cccc3Cl)s2)cc(N2CCN(CCO)CC2)n1 [dasatanib] (first compound 5 µM, partner dose 0.02 µM) | 77.4% | 79.1% | 87.8% | 97.4% | 25% | 71.9% | 53.9% | 87.8% | 29.2% | 69.1%
CC[C@]1(O)C[C@H]2CN(CCc3c([nH]c4ccccc34)[C@@](C(=O)OC)(c3cc4c(cc3OC)N(C=O)[C@H]3[C@@](O)(C(=O)OC)[C@H](OC(C)=O)[C@]5(CC)C=CCN6CC[C@]43[C@@H]65)C2)C1 [vincristine] + Cc1cn(-c2cc(NC(=O)c3ccc(C)c(Nc4nccc(-c5cccnc5)n4)c3)cc(C(F)(F)F)c2)cn1 [nilotinib] (first compound 0.0005 µM, partner dose 1 µM) | 99.3% | 98.3% | 86.8% | 110% | 116% | 105% | 90.1% | 108% | 50.7% | 74.7%
N#CC[C@H](C1CCCC1)n1cc(-c2ncnc3[nH]ccc23)cn1 [ruxolitinib] + O=C(Nc1cc(C(F)(F)F)cc(C(F)(F)F)c1)c1cc(Cl)ccc1O [IMD0354] (first compound 5 µM, partner dose 0.08 µM) | 75% | 77.5% | 81.5% | 107% | 81.7% | 67.7% | 77.3% | 72.5% | 84.7% | 68.2%
N#CC[C@H](C1CCCC1)n1cc(-c2ncnc3[nH]ccc23)cn1 [ruxolitinib] + COc1ccc(COc2ccc(Cc3cnc(N)nc3N)cc2OC)cc1 [GW2580] (first compound 5 µM, partner dose 5 µM) | 81.1% | 94.2% | 90.5% | 150% | 109% | 84.7% | 81.9% | 76.4% | 109% | 104%
N#CC[C@H](C1CCCC1)n1cc(-c2ncnc3[nH]ccc23)cn1 [ruxolitinib] + COCC[n+]1c2c(n(Cc3cnccn3)c1C)C(=O)c1ccccc1C2=O [YM155] (first compound 5 µM, partner dose 0.002 µM) | 49.2% | 60.8% | 53.6% | 45.2% | 72% | 75.1% | 27.4% | 39.5% | 44.3% | 72.9%
N#CC[C@H](C1CCCC1)n1cc(-c2ncnc3[nH]ccc23)cn1 [ruxolitinib] + CC(C)(C)c1cnc(CSc2cnc(NC(=O)C3CCNCC3)s2)o1 [SNS-032] (first compound 5 µM, partner dose 0.05 µM) | 86.2% | 108% | 85.3% | 82.7% | 64.9% | 86.1% | 106% | 95.6% | 18.9% | 65.2%
Cc1cc(Nc2cc(N3CCN(C)CC3)nc(Sc3ccc(NC(=O)C4CC4)cc3)n2)n[nH]1 [Tozasertib] + O=C(O)c1ccc(-c2c[nH]c3ncc(-c4ccccc4)cc23)cc1C1CCCC1 [GSK650394] (first compound 0.03 µM, partner dose 0.8 µM) | 67.8% | 90.4% | 70.5% | 78.5% | 103% | 72.7% | 88.8% | 69% | 75% | 98.3%
CC[C@]1(O)C[C@H]2CN(CCc3c([nH]c4ccccc34)[C@@](C(=O)OC)(c3cc4c(cc3OC)N(C=O)[C@H]3[C@@](O)(C(=O)OC)[C@H](OC(C)=O)[C@]5(CC)C=CCN6CC[C@]43[C@@H]65)C2)C1 [vincristine] + CC(=O)c1c(C)c2cnc(Nc3ccc(N4CCNCC4)cn3)nc2n(C2CCCC2)c1=O [palbociclib] (first compound 0.0005 µM, partner dose 0.2 µM) | 71.2% | 67.2% | 71.3% | 64.4% | 80.2% | 61% | 56.4% | 43.6% | 39.8% | 47.7%
Cc1cc(Nc2cc(N3CCN(C)CC3)nc(Sc3ccc(NC(=O)C4CC4)cc3)n2)n[nH]1 [Tozasertib] + O=S(=O)(c1ccccc1)N(CC(F)(F)F)c1ccc(C(O)(C(F)(F)F)C(F)(F)F)cc1 [T0901317] (first compound 0.03 µM, partner dose 7 µM) | 55.2% | 73.6% | 87.7% | 66.2% | 93.4% | 76.9% | 54.7% | 67.6% | 55.5% | 84.3%
Cc1cc(Nc2cc(N3CCN(C)CC3)nc(Sc3ccc(NC(=O)C4CC4)cc3)n2)n[nH]1 [Tozasertib] + Oc1cc(-c2nc(-c3ccccc3)[nH]c2-c2ccncc2)ccc1Cl [L779450] (first compound 0.03 µM, partner dose 1 µM) | 47.7% | 69.2% | 69.7% | 70.8% | 82.1% | 79.8% | 75.2% | 60.2% | 86.8% | 73.5%
N#CC[C@H](C1CCCC1)n1cc(-c2ncnc3[nH]ccc23)cn1 [ruxolitinib] + O=C(O)C(=O)Nc1sc2c(c1C(=O)O)CCNC2 [TCS401] (first compound 5 µM, partner dose 8.33333 µM) | 74.8% | 84.7% | 95.1% | 112% | 117% | 71.4% | 97.4% | 74.2% | 78% | 73.9%
CC[C@]1(O)C[C@H]2CN(CCc3c([nH]c4ccccc34)[C@@](C(=O)OC)(c3cc4c(cc3OC)N(C=O)[C@H]3[C@@](O)(C(=O)OC)[C@H](OC(C)=O)[C@]5(CC)C=CCN6CC[C@]43[C@@H]65)C2)C1 [vincristine] + Nc1ccn([C@@H]2O[C@H](CO)[C@@H](O)C2(F)F)c(=O)n1 [gemcitabine] (first compound 0.0005 µM, partner dose 0.002 µM) | 35.8% | 56.4% | 34.1% | 53.1% | 57.8% | 54% | 78.6% | 41.6% | 43.5% | 42.2%
Cc1cc(Nc2cc(N3CCN(C)CC3)nc(Sc3ccc(NC(=O)C4CC4)cc3)n2)n[nH]1 [Tozasertib] + COc1ccc(C2=N[C@@H](c3ccc(Cl)cc3)[C@@H](c3ccc(Cl)cc3)N2C(=O)N2CCNC(=O)C2)c(OC(C)C)c1 [Nutlin-3] (first compound 0.03 µM, partner dose 0.5 µM) | 62.2% | 87.2% | 103% | 66.7% | 93.9% | 101% | 65.1% | 77.7% | 114% | 83%
CC[C@]1(O)C[C@H]2CN(CCc3c([nH]c4ccccc34)[C@@](C(=O)OC)(c3cc4c(cc3OC)N(C=O)[C@H]3[C@@](O)(C(=O)OC)[C@H](OC(C)=O)[C@]5(CC)C=CCN6CC[C@]43[C@@H]65)C2)C1 [vincristine] + CNC(=O)c1cc(Oc2ccc(NC(=O)Nc3ccc(Cl)c(C(F)(F)F)c3)cc2)ccn1 [sorafenib] (first compound 0.0005 µM, partner dose 2 µM) | 58.2% | 81.3% | 66.5% | 74.4% | 82.4% | 84.3% | 36.3% | 39% | 19.5% | 51.4%
Cc1cc(Nc2cc(N3CCN(C)CC3)nc(Sc3ccc(NC(=O)C4CC4)cc3)n2)n[nH]1 [Tozasertib] + O=C(O)[C@@H]1[O][Sb](=[O])([O][Sb]2(=[O])[O][C@H]([C@H](O)CO)[C@H](O)[C@H](C(=O)O)[O]2)[O][C@H]([C@H](O)CO)[C@@H]1O [stibogluconate] (first compound 0.03 µM, partner dose 10 µM) | 81.8% | 94.9% | 90.9% | 84.4% | 60% | 101% | 56.4% | 78.9% | 80% | 119%
N#CC[C@H](C1CCCC1)n1cc(-c2ncnc3[nH]ccc23)cn1 [ruxolitinib] + CO[C@@H]1[C@H](N(C)C(=O)c2ccccc2)C[C@H]2O[C@]1(C)n1c3ccccc3c3c4c(c5c6ccccc6n2c5c31)C(=O)NC4 [Midostaurin] (first compound 5 µM, partner dose 0.4 µM) | 52.8% | 66.8% | 71.1% | 53% | 59.7% | 73.5% | 63.5% | 56.4% | 27.9% | 64%
CC[C@]1(O)C[C@H]2CN(CCc3c([nH]c4ccccc34)[C@@](C(=O)OC)(c3cc4c(cc3OC)N(C=O)[C@H]3[C@@](O)(C(=O)OC)[C@H](OC(C)=O)[C@]5(CC)C=CCN6CC[C@]43[C@@H]65)C2)C1 [vincristine] + Cc1cc(N2CCOCC2)cc2[nH]c(-c3c(NC[C@@H](O)c4cccc(Cl)c4)cc[nH]c3=O)nc12 [BMS536924] (first compound 0.0005 µM, partner dose 1 µM) | 57.6% | 91.7% | 60.6% | 62.9% | 55% | 73.8% | 50.1% | 29.9% | 27.8% | 52.3%
